A lower IC50 marks a more sensitive line; where the fit passes the top or lowest dose, that dose stands as a limit. The AUC spans the tested range (256-fold, ending at the top dose) of the same fit; values near 1 show little effect. For some assays here: Any top dose called inferred was derived from the fitted curves, not read from the paper. For some assays here: Where an entry number is given, a second screen of the drug exists; the two often differ.
Experiments:
Test in all cases: Viability of human cancer cell lines after 72 h of drug (GDSC screen)
VNLG/124 = compound: CCCC(=O)OCc1ccc(OC(=O)/C=C(C)/C=C/C=C(C)/C=C/C2=C(C)CCCC2(C)C)cc1 [VNLG/124]; conditions: top dose 5.12 µM; top dose inferred
Procedure: (§1)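 Human cancer cell lines in 384-well plates, medium with 10% serum, drug for 72 h over a 256-fold dose range (nine 2-fold or five 4-fold steps up to the top dose). Adherent lines were fixed and stained with the nucleic acid dye Syto60, suspension lines read with resazurin; signal relative to control wells, capped at 0 and 100%. One two-parameter sigmoid per drug and line, fitted in a mixed model over all curves with the slope shared within a line.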

NSC-87877 = compound: O=S(=O)(O)c1ccc2cc(N=Nc3cc(S(=O)(=O)O)c4cccnc4c3O)ccc2c1 [NSC-87877]; conditions: top dose 16 µM; top dose inferred
Procedure: as §1

Bleomycin = compound: Cc1c(N)nc([C@H](CC(N)=O)NC[C@H](N)C(N)=O)nc1C(=O)N[C@H](C(=O)N[C@H](C)[C@@H](O)[C@H](C)C(=O)N[C@H](C(=O)NCCc1nc(-c2nc(C(=O)NCCC[S+](C)C)cs2)cs1)[C@@H](C)O)[C@@H](OC1OC(CO)C(O)C(O)C1OC1OC(CO)C(O)C(OC(N)=O)C1O)c1cnc[nH]1 [Bleomycin]
Procedure: as §1

BX-912 = compound: O=C(Nc1cccc(Nc2ncc(Br)c(NCCc3cnc[nH]3)n2)c1)N1CCCC1 [BX-912]; conditions: top dose 10.24 µM; top dose inferred
Procedure: as §1

LAQ824 = compound: O=C(/C=C/c1ccc(CN(CCO)CCc2c[nH]c3ccccc23)cc1)NO [LAQ824]; conditions: top dose 1.024 µM; top dose inferred
Procedure: as §1

Masitinib = compound: Cc1ccc(NC(=O)c2ccc(CN3CCN(C)CC3)cc2)cc1Nc1nc(-c2cccnc2)cs1 [Masitinib]; conditions: top dose 20 µM
Procedure: as §1

Tamoxifen = compound: CC/C(=C(\c1ccccc1)c1ccc(OCCN(C)C)cc1)c1ccccc1 [Tamoxifen]; conditions: top dose 5 µM
Procedure: as §1

Elesclomol = compound: CN(NC(=O)CC(=O)NN(C)C(=S)c1ccccc1)C(=S)c1ccccc1 [Elesclomol]; conditions: top dose 0.2 µM; top dose inferred
Procedure: as §1

OSI-930 = compound: O=C(Nc1ccc(OC(F)(F)F)cc1)c1sccc1NCc1ccnc2ccccc12 [OSI-930]; conditions: top dose 10.24 µM
Procedure: as §1

HG-5-88-01 = compound: COc1cc(N2CCC(C(N)=O)CC2)ccc1Nc1nc(N)c(Cl)c(Nc2ccccc2S(=O)(=O)C(C)C)n1 [HG-5-88-01]; conditions: top dose 10 µM; top dose inferred
Procedure: as §1

[1] = top dose 50 µM, screen: GDSC drug entry 1378, top dose inferred
[2] = top dose 64 µM, screen: GDSC drug entry 190

| Cell Line | AUC (VNLG/124) | IC50 (VNLG/124) [µM] | AUC (NSC-87877) | IC50 (NSC-87877) [µM] | AUC (Bleomycin; [1]) | IC50 (Bleomycin; [1]) [µM] | AUC (Bleomycin; [2]) | IC50 (Bleomycin; [2]) [µM] | AUC (BX-912) | IC50 (BX-912) [µM] | AUC (LAQ824) | IC50 (LAQ824) [µM] | AUC (Masitinib) | IC50 (Masitinib) [µM] | AUC (Tamoxifen) | IC50 (Tamoxifen) [µM] | AUC (Elesclomol) | IC50 (Elesclomol) [µM] | AUC (OSI-930) | IC50 (OSI-930) [µM] | AUC (HG-5-88-01) | IC50 (HG-5-88-01) [µM] |
| --- | --- | --- | --- | --- | --- | --- | --- | --- | --- | --- | --- | --- | --- | --- | --- | --- | --- | --- | --- | --- | --- | --- |
| EW-24 (Ewing sarcoma, semi-adherent) | 0.987 | > 5.12 | 0.983 | > 16 | 0.786 | 18.9 | 0.892 | 59.6 | 0.993 | > 10.2 | 0.864 | 0.721 | 0.929 | > 20 | 0.991 | > 5 | 0.973 | > 0.2 | 0.976 | > 10.2 | 0.883 | 8.49 |
| RERF-LC-Sq1 (lung squamous cell carcinoma, adherent) | 0.977 | > 5.12 | 0.878 | > 16 | 0.709 | 16.2 | 0.927 | > 64 | 0.802 | 8.14 | 0.842 | > 1.02 | 0.915 | > 20 | 0.95 | > 5 | 0.74 | 0.0862 | 0.975 | > 10.2 | 0.879 | > 10 |
| BL-41 (Burkitt lymphoma, suspension) | 0.974 | > 5.12 | 0.988 | > 16 | 0.671 | 8.25 | 0.718 | 13.9 | 0.341 | 0.261 | 0.262 | 0.0164 | 0.873 | 11.9 | 0.991 | > 5 | 0.369 | 0.00598 | 0.834 | 4.59 | 0.994 | > 10 |
| NCI-H1648 (lung adenocarcinoma, adherent) | 0.964 | > 5.12 | 0.979 | > 16 | 0.866 | 49.4 | 0.687 | 13.8 | 0.911 | > 10.2 | 0.478 | 0.0554 | 0.89 | > 20 | 0.983 | > 5 | 0.842 | 0.154 | 0.938 | > 10.2 | 0.666 | 1.87 |
| CL-11 (large intestine, adherent) | 0.987 | > 5.12 | 0.983 | > 16 | 0.813 | 31.3 | 0.959 | > 64 | 0.98 | > 10.2 | 0.817 | 0.67 | 0.983 | > 20 | 0.986 | > 5 | 0.942 | > 0.2 | 0.984 | > 10.2 | 0.882 | > 10 |
| GI-1 (glioma, adherent) | 0.98 | > 5.12 | 0.986 | > 16 | 0.307 | 0.925 | 0.314 | 1.24 | 0.772 | 3.8 | 0.478 | 0.0558 | 0.87 | 17.2 | 0.983 | > 5 | 0.458 | 0.00964 | 0.97 | > 10.2 | 0.921 | > 10 |
| NCI-H810 (large cell lung carcinoma, adherent) | 0.986 | > 5.12 | 0.988 | > 16 | 0.888 | > 50 | 0.8 | 29.4 | 0.764 | 3.56 | 0.233 | 0.0112 | 0.806 | 9.62 | 0.983 | > 5 | 0.828 | 0.117 | 0.978 | > 10.2 | 0.987 | > 10 |
| NALM-6 (B-cell leukaemia, suspension) | 0.948 | > 5.12 | 0.987 | > 16 | 0.814 | 21.9 | 0.179 | 0.542 | 0.416 | 0.392 | 0.209 | 0.0108 | 0.676 | 3.52 | 0.972 | > 5 | 0.986 | > 0.2 | 0.838 | 5.37 | 0.984 | > 10 |
| VMRC-MELG (melanoma, adherent) | 0.988 | > 5.12 | 0.989 | > 16 | 0.985 | > 50 | 0.607 | 7.97 | 0.986 | > 10.2 | 0.571 | 0.101 | 0.979 | > 20 | 0.988 | > 5 | 0.877 | > 0.2 | 0.974 | > 10.2 | 0.953 | > 10 |
| SW1710 (bladder, adherent) | 0.985 | > 5.12 | 0.97 | > 16 | 0.543 | 4.1 | 0.202 | 0.506 | 0.901 | > 10.2 | 0.238 | 0.0108 | 0.917 | > 20 | 0.968 | > 5 | 0.403 | 0.00673 | 0.984 | > 10.2 | 0.96 | > 10 |
| DG-75 (Burkitt lymphoma, suspension) | 0.986 | > 5.12 | 0.982 | > 16 | 0.89 | > 50 | 0.725 | 17.6 | 0.918 | > 10.2 | 0.742 | 0.319 | 0.868 | 18.7 | 0.94 | > 5 | 0.593 | 0.0226 | 0.966 | > 10.2 | 0.957 | > 10 |
| NCI-H1792 (lung adenocarcinoma, adherent) | 0.99 | > 5.12 | 0.99 | > 16 | 0.297 | 0.895 | 0.417 | 2.43 | 0.881 | 8.91 | 0.659 | 0.168 | 0.956 | > 20 | 0.98 | > 5 | 0.859 | 0.14 | 0.99 | > 10.2 | 0.841 | 5.96 |
| LK-2 (lung squamous cell carcinoma, adherent) | 0.987 | > 5.12 | 0.905 | > 16 | 0.235 | 0.565 | 0.383 | 1.95 | 0.6 | 1.18 | 0.281 | 0.016 | 0.757 | 6.54 | 0.988 | > 5 | 0.6 | 0.0232 | 0.956 | > 10.2 | 0.987 | > 10 |
| ATN-1 (T-cell lymphoblastic leukaemia, suspension) | 0.669 | 0.914 | 0.98 | > 16 | 0.695 | 10.5 | 0.754 | 20.2 | 0.227 | 0.11 | 0.336 | 0.0232 | 0.866 | 15.9 | 0.916 | > 5 | 0.446 | 0.00898 | 0.967 | > 10.2 | 0.945 | > 10 |
| H2869 (mesothelioma, adherent) | 0.984 | > 5.12 | 0.984 | > 16 | 0.763 | 22.2 | 0.733 | 22 | 0.764 | 4.58 | 0.582 | 0.113 | 0.968 | > 20 | 0.98 | > 5 | 0.598 | 0.0248 | 0.978 | > 10.2 | 0.88 | > 10 |
| MSTO-211H (mesothelioma, adherent) | 0.988 | > 5.12 | 0.982 | > 16 | 0.192 | 0.426 | 0.942 | > 64 | 0.966 | > 10.2 | 0.986 | > 1.02 | 0.965 | > 20 | 0.99 | > 5 | 0.872 | 0.16 | 0.967 | > 10.2 | 0.967 | > 10 |
| SW626 (ovary, adherent) | 0.984 | > 5.12 | 0.984 | > 16 | 0.654 | 9.08 | 0.36 | 1.52 | 0.971 | > 10.2 | 0.425 | 0.0384 | 0.872 | > 20 | 0.975 | > 5 | 0.712 | 0.0563 | 0.796 | 5.84 | 0.904 | > 10 |
| KCL-22 (chronic myeloid leukaemia, suspension) | 0.962 | > 5.12 | 0.984 | > 16 | 0.867 | 33.3 | 0.548 | 5.28 | 0.803 | 4.14 | 0.375 | 0.0307 | 0.293 | 0.366 | 0.982 | > 5 | 0.802 | 0.0804 | 0.861 | 6.5 | 0.986 | > 10 |
| NCI-H716 (large intestine, suspension) | 0.941 | > 5.12 | 0.969 | > 16 | 0.903 | > 50 | 0.97 | > 64 | 0.579 | 1.11 | 0.801 | 0.658 | 0.876 | > 20 | 0.951 | > 5 | 0.651 | 0.0367 | 0.923 | > 10.2 | 0.849 | > 10 |
| TK10 (kidney, adherent) | 0.976 | > 5.12 | 0.982 | > 16 | 0.674 | 10.7 | 0.406 | 2.09 | 0.889 | > 10.2 | 0.416 | 0.0359 | 0.896 | > 20 | 0.973 | > 5 | 0.689 | 0.0476 | 0.979 | > 10.2 | 0.942 | > 10 |
| NCI-H1395 (lung adenocarcinoma, adherent) | 0.98 | > 5.12 | 0.981 | > 16 | 0.4 | 1.52 | 0.874 | > 64 | 0.953 | > 10.2 | 0.904 | > 1.02 | 0.911 | > 20 | 0.976 | > 5 | 0.522 | 0.0146 | 0.957 | > 10.2 | 0.98 | > 10 |
| MHH-ES-1 (Ewing sarcoma, adherent) | 0.973 | > 5.12 | 0.969 | > 16 | 0.125 | 0.202 | 0.199 | 0.521 | 0.445 | 0.454 | 0.373 | 0.0286 | 0.854 | 15.4 | 0.984 | > 5 | 0.254 | 0.00249 | 0.948 | > 10.2 | 0.766 | 3.63 |
| UACC-893 (breast, adherent) | 0.983 | > 5.12 | 0.943 | > 16 | 0.741 | 19.8 | 0.771 | 33.2 | 0.983 | > 10.2 | 0.582 | 0.116 | 0.886 | > 20 | 0.98 | > 5 | 0.878 | > 0.2 | 0.945 | > 10.2 | 0.98 | > 10 |

Source: the supplement of paper PMC4967469
